Source: publication PMC4947186
Results are given in words; binding and its absence hold for the method and conditions named. In cells and extracts the contact can be indirect. Some results given as binding are weak or reduced against the parent protein; the word gives no strength. Sequences can lack the tags named with a protein.

Sequences of proteins named here, by UniProt entry; tags and fusion partners are left off.
UniProt Q13547: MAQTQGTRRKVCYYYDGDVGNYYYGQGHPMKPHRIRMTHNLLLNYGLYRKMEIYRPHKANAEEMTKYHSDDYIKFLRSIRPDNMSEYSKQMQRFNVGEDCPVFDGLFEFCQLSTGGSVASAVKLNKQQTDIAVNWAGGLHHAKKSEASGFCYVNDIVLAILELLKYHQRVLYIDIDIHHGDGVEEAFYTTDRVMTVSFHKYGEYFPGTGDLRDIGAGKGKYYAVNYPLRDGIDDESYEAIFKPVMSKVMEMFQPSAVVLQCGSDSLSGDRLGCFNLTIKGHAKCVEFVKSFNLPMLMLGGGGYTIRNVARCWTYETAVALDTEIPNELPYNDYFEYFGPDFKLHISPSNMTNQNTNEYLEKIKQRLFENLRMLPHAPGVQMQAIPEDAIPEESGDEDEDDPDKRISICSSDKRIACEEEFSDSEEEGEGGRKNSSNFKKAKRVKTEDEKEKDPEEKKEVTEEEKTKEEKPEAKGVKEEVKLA
UniProt P49792: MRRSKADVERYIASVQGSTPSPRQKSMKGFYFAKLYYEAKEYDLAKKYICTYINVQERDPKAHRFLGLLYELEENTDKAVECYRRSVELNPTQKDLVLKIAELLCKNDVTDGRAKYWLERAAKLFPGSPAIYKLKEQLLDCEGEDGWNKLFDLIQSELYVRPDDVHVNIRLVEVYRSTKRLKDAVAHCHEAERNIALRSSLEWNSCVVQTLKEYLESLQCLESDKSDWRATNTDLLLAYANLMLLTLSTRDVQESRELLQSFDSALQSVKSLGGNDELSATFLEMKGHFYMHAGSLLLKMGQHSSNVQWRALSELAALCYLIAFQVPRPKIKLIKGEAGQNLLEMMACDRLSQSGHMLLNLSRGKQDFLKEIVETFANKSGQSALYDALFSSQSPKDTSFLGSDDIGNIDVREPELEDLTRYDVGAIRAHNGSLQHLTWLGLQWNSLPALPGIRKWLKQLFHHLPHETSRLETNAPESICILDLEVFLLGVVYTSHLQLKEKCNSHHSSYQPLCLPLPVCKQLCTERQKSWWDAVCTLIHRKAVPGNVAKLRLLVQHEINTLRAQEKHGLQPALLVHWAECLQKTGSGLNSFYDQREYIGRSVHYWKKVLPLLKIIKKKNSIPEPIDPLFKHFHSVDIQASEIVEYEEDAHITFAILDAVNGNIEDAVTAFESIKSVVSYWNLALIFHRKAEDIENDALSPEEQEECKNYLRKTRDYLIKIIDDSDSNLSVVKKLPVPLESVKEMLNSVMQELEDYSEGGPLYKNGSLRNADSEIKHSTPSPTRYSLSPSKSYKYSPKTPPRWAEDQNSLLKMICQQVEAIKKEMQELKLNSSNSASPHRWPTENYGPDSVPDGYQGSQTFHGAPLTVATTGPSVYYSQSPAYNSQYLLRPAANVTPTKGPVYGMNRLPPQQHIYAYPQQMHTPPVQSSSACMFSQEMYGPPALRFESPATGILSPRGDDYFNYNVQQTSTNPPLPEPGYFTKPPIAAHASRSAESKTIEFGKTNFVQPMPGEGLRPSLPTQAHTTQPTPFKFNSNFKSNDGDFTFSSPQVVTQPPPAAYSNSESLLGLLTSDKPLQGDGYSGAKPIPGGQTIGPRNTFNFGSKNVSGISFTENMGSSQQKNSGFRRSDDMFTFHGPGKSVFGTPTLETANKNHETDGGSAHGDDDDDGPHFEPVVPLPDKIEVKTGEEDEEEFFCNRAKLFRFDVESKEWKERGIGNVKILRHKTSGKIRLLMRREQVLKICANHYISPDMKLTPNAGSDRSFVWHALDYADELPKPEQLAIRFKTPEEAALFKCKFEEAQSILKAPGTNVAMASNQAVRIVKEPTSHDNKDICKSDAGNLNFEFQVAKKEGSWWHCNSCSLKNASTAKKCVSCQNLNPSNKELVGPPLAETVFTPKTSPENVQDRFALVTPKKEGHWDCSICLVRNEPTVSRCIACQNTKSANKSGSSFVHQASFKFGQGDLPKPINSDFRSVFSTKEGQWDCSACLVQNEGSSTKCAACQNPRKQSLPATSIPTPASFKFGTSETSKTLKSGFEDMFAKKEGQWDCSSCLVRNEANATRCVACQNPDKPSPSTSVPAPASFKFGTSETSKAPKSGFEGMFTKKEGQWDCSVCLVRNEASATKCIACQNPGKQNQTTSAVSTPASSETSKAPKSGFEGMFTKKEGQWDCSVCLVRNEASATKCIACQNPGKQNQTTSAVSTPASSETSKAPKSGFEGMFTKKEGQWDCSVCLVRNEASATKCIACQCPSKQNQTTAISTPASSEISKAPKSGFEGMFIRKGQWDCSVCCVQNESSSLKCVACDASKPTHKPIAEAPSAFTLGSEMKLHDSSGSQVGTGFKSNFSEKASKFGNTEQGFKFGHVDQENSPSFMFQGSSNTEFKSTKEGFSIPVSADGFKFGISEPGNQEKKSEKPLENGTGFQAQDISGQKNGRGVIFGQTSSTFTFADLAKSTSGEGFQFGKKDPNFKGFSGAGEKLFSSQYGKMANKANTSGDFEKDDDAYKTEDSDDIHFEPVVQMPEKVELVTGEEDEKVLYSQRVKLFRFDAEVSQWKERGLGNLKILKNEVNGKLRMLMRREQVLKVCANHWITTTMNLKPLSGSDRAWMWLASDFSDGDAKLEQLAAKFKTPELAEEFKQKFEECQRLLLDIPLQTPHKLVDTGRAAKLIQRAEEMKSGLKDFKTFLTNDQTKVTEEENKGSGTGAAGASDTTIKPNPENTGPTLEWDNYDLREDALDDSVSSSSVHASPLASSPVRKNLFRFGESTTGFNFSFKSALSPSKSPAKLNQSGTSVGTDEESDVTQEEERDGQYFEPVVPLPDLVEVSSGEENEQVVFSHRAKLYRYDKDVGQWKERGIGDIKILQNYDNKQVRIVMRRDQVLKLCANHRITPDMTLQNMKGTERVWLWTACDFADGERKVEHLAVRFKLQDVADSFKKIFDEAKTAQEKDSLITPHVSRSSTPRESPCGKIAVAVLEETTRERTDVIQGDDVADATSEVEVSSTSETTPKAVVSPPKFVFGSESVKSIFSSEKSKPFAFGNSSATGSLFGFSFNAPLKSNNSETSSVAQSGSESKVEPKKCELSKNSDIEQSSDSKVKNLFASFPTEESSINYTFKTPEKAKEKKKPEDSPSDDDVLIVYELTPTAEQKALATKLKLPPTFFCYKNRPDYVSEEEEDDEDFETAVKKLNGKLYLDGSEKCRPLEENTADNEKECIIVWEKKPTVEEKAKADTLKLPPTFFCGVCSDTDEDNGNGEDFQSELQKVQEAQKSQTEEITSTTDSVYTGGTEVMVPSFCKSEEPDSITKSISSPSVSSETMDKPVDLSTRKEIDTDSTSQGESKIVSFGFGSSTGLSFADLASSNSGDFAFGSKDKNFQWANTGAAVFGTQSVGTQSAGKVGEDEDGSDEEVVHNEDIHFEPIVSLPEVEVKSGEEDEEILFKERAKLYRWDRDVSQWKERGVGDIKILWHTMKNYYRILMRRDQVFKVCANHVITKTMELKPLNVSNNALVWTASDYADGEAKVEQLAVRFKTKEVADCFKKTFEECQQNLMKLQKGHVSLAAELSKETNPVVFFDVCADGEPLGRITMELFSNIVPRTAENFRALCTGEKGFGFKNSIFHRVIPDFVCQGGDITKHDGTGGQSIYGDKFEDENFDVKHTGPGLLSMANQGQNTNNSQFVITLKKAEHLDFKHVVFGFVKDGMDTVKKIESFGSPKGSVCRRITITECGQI

B1: flag-SHP (Small Heterodimer Partner, NR0B2), wild type, expressed in HepG2 cells (protein, UniProt Q62227 1-260)
chain: MSSGQSGVCPCQGSAGRPTILYALLSPSPRTRPVAPASHSHCLCQQQRPVRLCAPHRTCREALDVLAKTVAFLRNLPSFCHLPHEDQRRLLECCWGPLFLLGLAQDAVTFEVAEAPVPSILKKILLEEASSGTQGAQPSDRPQPSLAAVQWLQRCLESFWSLELGPKEYAYLKGTILFNPDVPGLRASCHIAHLQQEAHWALCEVLEPWYPASQGRLARILLMASTLKNIPGTLLVDLFFRPIMGDVDITELLEDMLLLR
B2: flag-SHP K68R mutant (SUMO-defective), expressed in HepG2 cells (protein, UniProt Q62227 1-260)
chain: MSSGQSGVCPCQGSAGRPTILYALLSPSPRTRPVAPASHSHCLCQQQRPVRLCAPHRTCREALDVLARTVAFLRNLPSFCHLPHEDQRRLLECCWGPLFLLGLAQDAVTFEVAEAPVPSILKKILLEEASSGTQGAQPSDRPQPSLAAVQWLQRCLESFWSLELGPKEYAYLKGTILFNPDVPGLRASCHIAHLQQEAHWALCEVLEPWYPASQGRLARILLMASTLKNIPGTLLVDLFFRPIMGDVDITELLEDMLLLR

Columns and labels:
[1] = biological target: T1, flag-SHP (Small Heterodimer Partner, NR0B2), wild type, expressed in HepG2 cells (mouse) (UniProt Q62227); assay: co-IP; flag-SHP expressed in HepG2 cells precipitated by M2 antibody, RanBP2 detected by IB (Fig. 1b); Fig. 5a: cells treated with 50 uM CDCA for 15 min
T1 sequence: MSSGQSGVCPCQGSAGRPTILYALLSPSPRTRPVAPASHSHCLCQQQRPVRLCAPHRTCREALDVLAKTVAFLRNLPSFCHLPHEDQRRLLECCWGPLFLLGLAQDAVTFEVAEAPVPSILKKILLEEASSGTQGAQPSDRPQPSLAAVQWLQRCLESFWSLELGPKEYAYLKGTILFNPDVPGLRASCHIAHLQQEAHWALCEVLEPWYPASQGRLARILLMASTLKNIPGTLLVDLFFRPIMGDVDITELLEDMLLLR

[2] = biological target: T2, flag-SHP T58A mutant (phosphorylation-defective), expressed in HepG2 cells (mouse) (UniProt Q62227); assay: as above
T2 sequence: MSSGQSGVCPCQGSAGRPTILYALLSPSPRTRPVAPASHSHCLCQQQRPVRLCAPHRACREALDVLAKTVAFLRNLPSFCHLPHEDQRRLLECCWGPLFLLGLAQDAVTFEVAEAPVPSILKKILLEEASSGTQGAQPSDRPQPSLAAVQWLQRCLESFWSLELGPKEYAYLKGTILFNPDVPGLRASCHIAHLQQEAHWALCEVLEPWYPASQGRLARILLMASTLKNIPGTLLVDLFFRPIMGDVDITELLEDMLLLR

[3] = biological target: HDAC1, endogenous in HepG2 cells (human (endogenous in HepG2)) (UniProt Q13547); assay: co-IP; flag-SHP WT or K68R expressed in HepG2 cells treated with 50 uM CDCA for 30 min; LSD1, HDAC1 or mSin3A immunoprecipitated with their antibodies, flag-SHP detected by M2 antibody
[4] = biological target: T3, mSin3A, endogenous in HepG2 cells (human (endogenous in HepG2)) (UniProt Q96ST3); assay: as above
T3 sequence: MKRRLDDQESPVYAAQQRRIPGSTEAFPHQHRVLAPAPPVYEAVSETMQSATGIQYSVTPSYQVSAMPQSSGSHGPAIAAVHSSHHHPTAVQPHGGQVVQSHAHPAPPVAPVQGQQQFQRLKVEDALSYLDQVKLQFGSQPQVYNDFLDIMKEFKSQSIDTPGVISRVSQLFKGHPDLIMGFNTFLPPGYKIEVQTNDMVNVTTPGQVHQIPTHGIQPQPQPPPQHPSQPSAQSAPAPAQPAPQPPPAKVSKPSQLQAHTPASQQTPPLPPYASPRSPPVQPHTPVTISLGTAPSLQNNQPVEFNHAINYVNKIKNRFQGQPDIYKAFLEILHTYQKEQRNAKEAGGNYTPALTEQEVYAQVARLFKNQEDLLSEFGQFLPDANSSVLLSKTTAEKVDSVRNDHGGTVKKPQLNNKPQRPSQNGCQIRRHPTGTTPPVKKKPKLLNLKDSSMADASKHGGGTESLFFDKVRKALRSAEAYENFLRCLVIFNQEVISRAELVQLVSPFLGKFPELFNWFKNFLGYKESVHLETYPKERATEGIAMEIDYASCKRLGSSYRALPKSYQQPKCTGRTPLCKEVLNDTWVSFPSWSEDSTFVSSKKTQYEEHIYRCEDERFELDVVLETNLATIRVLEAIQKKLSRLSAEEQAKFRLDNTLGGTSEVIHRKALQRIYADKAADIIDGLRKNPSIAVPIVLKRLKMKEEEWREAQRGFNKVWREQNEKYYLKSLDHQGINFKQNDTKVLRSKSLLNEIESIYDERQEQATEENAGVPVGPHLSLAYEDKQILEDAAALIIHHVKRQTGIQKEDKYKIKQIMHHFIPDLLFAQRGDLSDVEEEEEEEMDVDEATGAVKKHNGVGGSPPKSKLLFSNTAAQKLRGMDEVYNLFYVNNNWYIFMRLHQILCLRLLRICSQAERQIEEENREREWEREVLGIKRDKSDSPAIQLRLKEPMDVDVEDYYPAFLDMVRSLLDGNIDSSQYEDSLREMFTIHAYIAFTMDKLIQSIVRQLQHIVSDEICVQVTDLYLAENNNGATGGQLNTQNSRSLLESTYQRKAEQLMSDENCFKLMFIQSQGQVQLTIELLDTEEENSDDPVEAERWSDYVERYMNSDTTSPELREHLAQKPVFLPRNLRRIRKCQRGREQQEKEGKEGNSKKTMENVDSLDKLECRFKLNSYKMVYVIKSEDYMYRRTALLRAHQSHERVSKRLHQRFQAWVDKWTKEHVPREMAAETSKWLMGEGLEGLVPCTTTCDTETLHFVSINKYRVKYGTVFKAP

Row | Molecule | binding [1] | binding [2] | binding [3] | binding [4]
1 | Ran-binding protein 2 (RanBP2/Nup358), endogenous in HepG2 cells (from UniProt P49792 1-3224) | binds | no binding | – | –
2 | B1 | – | – | binds | binds
3 | B2 | – | – | no binding | no binding
